According to publication PMC4661828:
Results are given in words; binding and its absence hold for the method and conditions named. Binding seen in cells or lysates may run through a third protein. Some results given as binding are weak or reduced against the parent protein; the word gives no strength. Sequences can lack the tags named with a protein.

Legend:
[1] = target: T1, FLAG-COP10 (35S:FLAG-COP10 transgenic plants) (Arabidopsis thaliana) (UniProt Q9LJD7); test: co-IP; total protein extracts of 35S:FLAG-COP10, 35S:HA-GI and 35S:SGRL-FLAG transgenic seedlings grown in SD, treated with MG132; FLAG-M2 magnetic beads; immunoblot with anti-HA
T1 sequence: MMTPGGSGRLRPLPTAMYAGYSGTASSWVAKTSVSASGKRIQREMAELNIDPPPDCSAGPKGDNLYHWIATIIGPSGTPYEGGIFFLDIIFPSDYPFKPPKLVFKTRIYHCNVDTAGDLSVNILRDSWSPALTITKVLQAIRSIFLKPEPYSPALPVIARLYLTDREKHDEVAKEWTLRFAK

[2] = target: T2, FLAG-tagged STAY-GREEN LIKE (SGRL-FLAG) (Arabidopsis thaliana) (UniProt Q94AQ9); test: as above
T2 sequence: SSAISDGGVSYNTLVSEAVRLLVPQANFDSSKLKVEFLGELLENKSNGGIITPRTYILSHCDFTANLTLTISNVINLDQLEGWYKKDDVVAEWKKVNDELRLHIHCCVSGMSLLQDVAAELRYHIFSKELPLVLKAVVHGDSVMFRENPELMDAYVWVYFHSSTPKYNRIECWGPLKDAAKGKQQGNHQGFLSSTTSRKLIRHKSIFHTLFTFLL

B1: HA-GI (35S:HA-GI transgenic plants) (protein, UniProt Q9SQI2 1-1173)
chain: MASSSSSERWIDGLQFSSLLWPPPRDPQQHKDQVVAYVEYFGQFTSEQFPDDIAELVRHQYPSTEKRLLDDVLAMFVLHHPEHGHAVILPIISCLIDGSLVYSKEAHPFASFISLVCPSSENDYSEQWALACGEILRILTHYNRPIYKTEQQNGDTERNCLSKATTSGSPTSEPKAGSPTQHERKPLRPLSPWISDILLAAPLGIRSDYFRWCSGVMGKYAAGELKPPTIASRGSGKHPQLMPSTPRWAVANGAGVILSVCDDEVARYETATLTAVAVPALLLPPPTTSLDEHLVAGLPALEPYARLFHRYYAIATPSATQRLLLGLLEAPPSWAPDALDAAVQLVELLRAAEDYASGVRLPRNWMHLHFLRAIGIAMSMRAGVAADAAAALLFRILSQPALLFPPLSQVEGVEIQHAPIGGYSSNYRKQIEVPAAEATIEATAQGIASMLCAHGPEVEWRICTIWEAAYGLIPLNSSAVDLPEIIVATPLQPPILSWNLYIPLLKVLEYLPRGSPSEACLMKIFVATVETILSRTFPPESSRELTRKARSSFTTRSATKNLAMSELRAMVHALFLESCAGVELASRLLFVVLTVCVSHEAQSSGSKRPRSEYASTTENIEANQPVSNNQTANRKSRNVKGQGPVAAFDSYVLAAVCALACEVQLYPMISGGGNFSNSAVAGTITKPVKINGSSKEYGAGIDSAISHTRRILAILEALFSLKPSSVGTPWSYSSSEIVAAAMVAAHISELFRRSKALTHALSGLMRCKWDKEIHKRASSLYNLIDVHSKVVASIVDKAEPLEAYLKNTPVQKDSVTCLNWKQENTCASTTCFDTAVTSASRTEMNPRGNHKYARHSDEGSGRPSEKGIKDFLLDASDLANFLTADRLAGFYCGTQKLLRSVLAEKPELSFSVVSLLWHKLIAAPEIQPTAESTSAQQGWRQVVDALCNVVSATPAKAAAAVVLQAERELQPWIAKDDEEGQKMWKINQRIVKVLVELMRNHDRPESLVILASASDLLLRATDGMLVDGEACTLPQLELLEATARAIQPVLAWGPSGLAVVDGLSNLLKCRLPATIRCLSHPSAHVRALSTSVLRDIMNQSSIPIKVTPKLPTTEKNGMNSPSYRFFNAASIDWKADIQNCLNWEAHSLLSTTMPTQFLDTAARELGCTISLSQ
In the case of B1, the binding [1] is reported as “binds” and the binding [2] is reported as “no binding”.
